# The list shows a part of the results. Many values rest on one well or one pass, so single values are uncertain.
# Test system: WM1716
# Test: cell count relative to DMSO control; melanoma cells; higher = more viable cells
# Settings: library dose: low library concentration; 72 h
# 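Further: cell number obtained by counting DAPI-stained nuclei in high-throughput microscope images with image analysis software, screen run in 1,536-well plates.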
row,SMILES,cell count
1,"O=C(O)c1ccc2c(c1)nc(Nc1cccc(Cl)c1)c1ccncc12 + CC(C)CCN1c2nc(Nc3cc(F)c(O)c(F)c3)ncc2N(C)C(=O)C1C [BID1870] (first compound 0.4 µM, partner dose 0.2 µM)",74.9%
2,"O=C(Nc1cc(C(F)(F)F)cc(C(F)(F)F)c1)c1cc(Cl)ccc1O + CCCCCCCCCCCCCCCCCCOP(=O)([O-])OC1CC[N+](C)(C)CC1 [Perifosine] (first compound 0.016 µM, partner dose 0.4 µM)",93.1%
3,"O=C(O)c1ccc2c(c1)nc(Nc1cccc(Cl)c1)c1ccncc12 + C=C(c1ccc(C(=O)O)cc1)c1cc2c(cc1C)C(C)(C)CCC2(C)C [Bexarotene] (first compound 0.4 µM, partner dose 2 µM)",76.5%
4,"O=C(O)c1ccc2c(c1)nc(Nc1cccc(Cl)c1)c1ccncc12 + N#Cc1c(O)c2c(-c3ccc(-c4ccccc4O)cc3)csc2[nH]c1=O [A769662] (first compound 0.4 µM, partner dose 2 µM)",77.4%
5,"O=C(Nc1cc(C(F)(F)F)cc(C(F)(F)F)c1)c1cc(Cl)ccc1O + O=c1[nH]nc(Sc2ncc([N+](=O)[O-])s2)n1-c1ccc2c(c1)OCCO2 [BI78D3] (first compound 0.016 µM, partner dose 0.2 µM)",95.2%
6,"O=C(O)[C@@H]1[O][Sb](=[O])([O][Sb]2(=[O])[O][C@H]([C@H](O)CO)[C@H](O)[C@H](C(=O)O)[O]2)[O][C@H]([C@H](O)CO)[C@@H]1O (stereo partly drawn) [stibogluconate] + COc1cc2ncnc(Nc3ccc(Oc4ccccc4)cc3)c2cc1OC [SrcI1] (first compound 2 µM, partner dose 2 µM)",122%
7,"O=C(O)[C@@H]1[O][Sb](=[O])([O][Sb]2(=[O])[O][C@H]([C@H](O)CO)[C@H](O)[C@H](C(=O)O)[O]2)[O][C@H]([C@H](O)CO)[C@@H]1O (stereo partly drawn) [stibogluconate] + CCCS(=O)(=O)Nc1ccc(F)c(C(=O)c2c[nH]c3ncc(Cl)cc23)c1F [PLX4720] (first compound 2 µM, partner dose 0.08 µM)",90.6%
8,"O=C(Nc1cc(C(F)(F)F)cc(C(F)(F)F)c1)c1cc(Cl)ccc1O + COc1ccc(C2=N[C@@H](c3ccc(Cl)cc3)[C@@H](c3ccc(Cl)cc3)N2C(=O)N2CCNC(=O)C2)c(OC(C)C)c1 [Nutlin-3] (first compound 0.016 µM, partner dose 0.1 µM)",95.5%
9,"O=C(O)[C@@H]1[O][Sb](=[O])([O][Sb]2(=[O])[O][C@H]([C@H](O)CO)[C@H](O)[C@H](C(=O)O)[O]2)[O][C@H]([C@H](O)CO)[C@@H]1O (stereo partly drawn) [stibogluconate] + CCN(CC)CCCCNc1ncc2cc(-c3cc(OC)cc(OC)c3)c(NC(=O)NC(C)(C)C)nc2n1 [PD173074] (first compound 2 µM, partner dose 0.1 µM)",103%
10,"Cc1cc(N2CCOCC2)cc2[nH]c(-c3c(NC[C@@H](O)c4cccc(Cl)c4)cc[nH]c3=O)nc12 + CC(C)CCN1c2nc(Nc3cc(F)c(O)c(F)c3)ncc2N(C)C(=O)C1C [BID1870] (first compound 0.2 µM, partner dose 0.2 µM)",93.2%
11,"O=C(Nc1cc(C(F)(F)F)cc(C(F)(F)F)c1)c1cc(Cl)ccc1O + CC(C)(C)c1cnc(CSc2cnc(NC(=O)C3CCNCC3)s2)o1 [SNS-032] (first compound 0.016 µM, partner dose 0.01 µM)",97.7%
12,"O=C(O)[C@@H]1[O][Sb](=[O])([O][Sb]2(=[O])[O][C@H]([C@H](O)CO)[C@H](O)[C@H](C(=O)O)[O]2)[O][C@H]([C@H](O)CO)[C@@H]1O (stereo partly drawn) [stibogluconate] + Cn1c(Nc2ccc(C(F)(F)F)cc2)nc2cc(Oc3ccnc(-c4ncc(C(F)(F)F)[nH]4)c3)ccc21 [CHIR265] (first compound 2 µM, partner dose 0.08 µM)",92.1%
13,"O=C(Nc1cc(C(F)(F)F)cc(C(F)(F)F)c1)c1cc(Cl)ccc1O + COc1cc2ncnc(Nc3ccc(Oc4ccccc4)cc3)c2cc1OC [SrcI1] (first compound 0.016 µM, partner dose 2 µM)",116%

# Source: the supplement of paper PMC4604168 (melanoma cell lines)
